Read counts are not given, so values of variants with three or more changes are uncertain.

In the RNAGym collection of RNA variant scans (doi:10.1093/nar/gkz1192) one finds self-cleavage data, which are given here for 34 variants.

To fix the notation:
B1: CPEB3 Ribozyme (parent)
chain: UAACAGGGGGCCACAGCAGAAGCGUUCACGUCGCAGCCCCUGUCAGAUUCUGGUGAAUCUGCGAAUUCUGCUGUAUAUCUC

This series covers variants of B1. The series can be described thus: self-cleavage, relative activity (ratio to wild type); higher = more cleavage; in vitro, sequencing. Put shortly:
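Barcoded CPEB3 ribozyme mutants, produced by rounds of error-prone PCR, self-cleaved while being transcribed with T7 RNA polymerase for 5 hours at 37°C and during a subsequent 15 min DNase I step before EDTA was added. Sequencing of template-switched cDNA on Illumina gave cleaved and total reads, and DNA sequencing assigned barcodes to variants. Each variant's relative activity is its cleaved/total read fraction divided by the unmutated ribozyme's fraction, averaged across three batches. A variant needed a minimum of 5 reads.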
On to UAACGGGGGGCCACAGCAGAAGCGUUCACGUCGCAGCCCCUGUCAGAUUCUGGUGAAUCUGCGAACUCUGCCGUAUAUCUC [A5G U66C U72C], for which the self-cleavage amounted to 0.27.

Consider UAACUGGGGGCCACGGCAGAAGCGUUCACGUCGCAGCCCCCGUCAGAUUCUGGUGAACCUGCGAAUUCUGCUGUAUGUCUC [A5U A15G U41C U58C A77G], for which the self-cleavage was 0.1.

Take UAACGGGGGGCCACAGCAGAAGCGUUCACGUCGCAGCCCCUGUCAGAUUCCGGCGAAUCCGCGAAUUCUGCUGUAUAUCUC [A5G U51C U54C U60C]: the self-cleavage stood at 0.13.

In the case of UAACGGGGGGCCACAGCAGAAGCGUUCACGUCGCAGCCCCUGUCAGAUUCUGGCGAAUCUGCGAGUUCUGCUGUUCAUCUC [A5G U54C A65G A75U U76C], the self-cleavage amounted to 0.21.

On to UAACUGGGGGCCUCAGCAGAAGCGAUCACGCCGCAGCCCCUGUCAGAUUCUGGUGAAUCUGCGAAUUCCGCUGUAUAUCUC [A5U A13U U25A U31C U69C], for which the self-cleavage amounted to 0.17.

As for UAACUGGGGGCCACAGCGGAAGCGUUCACGUCGCAGCCCCUGUCAGAUUCUGGUGGAUCUGCGAACUCUGCUGUAUAUCUC [A5U A18G A56G U66C], the self-cleavage was 0.19.

As to UAACUGGGGGCCACGGCAGAAGCGUUCACGUCGCAGCCCCUGUCAGAUUCUGGAGAGUCUGCGAAUUCUGCUGUAUAACCC [A5U A15G U54A A57G U78A U80C], the self-cleavage is 0.64.

Regarding UAACGGGGGGCCACAGCAGAAGCGUUCACGUCGCAGCCCCUGUCAGAUUCUGGCGAAUCUGCGAAUUCUGGUGUAUAUCUC [A5G U54C C71G], the self-cleavage was 0.19.

As for UAACUGGGGGCCGCAGCAGAAGCGUUCACGUCGCGGCCCCUGUCAGAUUCUGGUGAAUCUGCGAGUUCUGCUGUAUAUCUC [A5U A13G A35G A65G], the self-cleavage was 0.53.

On to UAACUGGGGGCCACCGCAGAGGCGUUCCCGUCGCAGCCCCUGUCAGAUUCUGGUGAAUCUGCGAAUUCUGCUGUAUAUCCC [A5U A15C A21G A28C U80C], for which the self-cleavage amounted to 0.83.

Consider UAACUGGGGGCCCCAGCAGAAGCGUUCUCGUCGCAGCCCCUGUCAGAUUCUGGUGAAUCUGCGAAUUCUGCUGUAUGUCUC [A5U A13C A28U A77G], for which the self-cleavage stood at 1.19.

UAACUGGGGGCCACAGCGGAAGCGUUCGCGUCGCAGCCCCUGUCAGAUUCUGGUGAAUCUGCGAAUUCUGCUGUAUAUCUC [A5U A18G A28G]: the self-cleavage amounted to 0.86.

For UAACUGGGGGCCACAGCGGAAGCGCUCACUUCGCAGCCCCUGUCAGGUUCUGGUGAAUCUGCGAAUUCUGCUGUAUAUCUC [A5U A18G U25C G30U A47G], the self-cleavage came out at 0.09.

Turning to UAACUGGGGGCCACAGCGGAAGCGUUCACGCCGUAGCCCCUGUCAGAUUCUGGUGAAUCUGCGUAUUCUGCUGUAUAUCUC [A5U A18G U31C C34U A64U], the self-cleavage is 0.07.

On to UAACUGGGGGCCACGGCAGAAGGGUUCACGUCGCAGCCCCUGUCAGAUUCUGGUGAAUCUGCGAAUUCUGCUGUAUAUCUC [A5U A15G C23G], for which the self-cleavage stood at 0.15.

For UAACUGGGGGCCACAGCGGAAGCGUCCACGUCGCAGCCCCUGUCAGAUUCUGGUGAAUCUGCGAAUUCUGCUGUACAUCUC [A5U A18G U26C U76C], the self-cleavage came to 0.33.

Take UAACGGGGGGCCACAGCAGAAGCGUUCACGUCGCAGCCCCUGUCAGAUUCUGGUGAAUCUGCGAAUACUGCUGUACAUCCC [A5G U67A U76C U80C]: the self-cleavage was determined as 0.11.

Regarding UAACUGGGGGCCGCAGCAGAAGCGUUCACGCCGCUGCCCUUGUCAGAUUCUGGAGAAUCUGCGAAUUCUGCUGUAUAACUC [A5U A13G U31C A35U C40U U54A U78A], the self-cleavage turned out to be 0.12.

As for UAACUGGGGGCCUCAGCAGAAGCGUUCACGCCGCAGCCCCUGUCAGAUUCUGGUGAAACAGCGAAUUCUGCUGUAUAUCUC [A5U A13U U31C U58A U60A], the self-cleavage is 0.14.

For the variant UAACUGGGGGCCACAGCGGAAGCGUUCACGUCGCAGCCCCUGUAAGAUUCUGGUGAAUCUGCGAAUUCUGCUGUAUAUCUC [A5U A18G C44A], the self-cleavage was determined as 0.32.

With UAACUGGGGGCCACAGCAGCAGCGUUCACGUCGCAGCCCCUGUCAGGUUCUGGUGAAUCUGCGAGUUCUGCUGUAUAACUC [A5U A20C A47G A65G U78A], the self-cleavage is 0.09.

For the variant UAACGGGGGGCCACAGCAGAAGCGUUCACGUCGCAGCCCCUGUCAGAUUCUGGUGAAUCUGCGAAUUCCCCUGUAUACCUC [A5G U69C G70C U78C], the self-cleavage stood at 0.17.

UAACUGGGGGCCACAGCAGGGGCGUUCACGUCGCAGCCCCUGUCAGAUUCCGGUGAAUCUGCGAAUUCUGCUGUAUAUCUC [A5U A20G A21G U51C]: the self-cleavage was 0.11.

For the variant UAACUGGGGGCCACAGCGGAAGCGUUCGCGGCGCAGCCCCUGUCAGAUUCUGGUGAAUCUGCGAAUUCUGCUGUAUAUCUC [A5U A18G A28G U31G], the self-cleavage came out at 0.17.

Regarding UAACUGGGGGCCACGGCAGAAGCGUUCACGUCGCAGCCCCUGUCAGGUUCUGGUGAAUCUGCGAAUUCUGCUGUAUACCUC [A5U A15G A47G U78C], the self-cleavage worked out at 1.02.

With UAACUGGGGGCCACAGCAGGAGCGUUCACGUCGCGGCCCCUUUCAGAUUCUGGUGAAUCUGCGUACUCUGCUGUAUAUCUC [A5U A20G A35G G42U A64U U66C], the self-cleavage stood at 0.1.

For the variant UAACGGGGGGCCACAGCAGAAGCGUUCACGUCGCAGCCCCUGUCAGAUUCUGGUGAAUCUGCGAAUUCAGCUGUACAUCUC [A5G U69A U76C], the self-cleavage was 0.49.

Take UAACGGGGGGCCACAGCAGAAGCGUUCACGUCGCAGCCCCUGUCAGAUUCUGGCGAAUCUGCGAAUUCCGCUGUAUAUCUC [A5G U54C U69C]: the self-cleavage stood at 0.45.

For the variant UAACUGGGGGCCACAGCGGAAGCGUUCACGUCGCAGCCCCUGCCAGAUUCUGGUGAAUCUGCGAAUCCUGCUGUAUAUCUC [A5U A18G U43C U67C], the self-cleavage was found to be 0.12.

Take UAACUGGGGGCCACAGCGGAAGCGUUCACGUCGCAGCCCCUGUCAGAUUCUGGUGAAUCUGCGAAUUCUGCCGUAUAUCUC [A5U A18G U72C]: the self-cleavage turned out to be 0.69.

In the case of UAACUGGGGGCCACAGCGGAAGCGUUCACGUCGCAGCCCCUGUCGGAUUCUGGUGAAUCUACGAAUUCUGCUGUAUACCUC [A5U A18G A45G G61A U78C], the self-cleavage turned out to be 0.29.

On to UAACUGGGGGCCACUGCAGAAGCGUUCACGUCGCAGCCCCUGUCAGAUUCUGGUGAAUCUGCGGAUUCUGAUGAAUAUCUC [A5U A15U A64G C71A U74A], for which the self-cleavage came out at 0.13.

As for UAACUGGGGGCCACAGCGGAAGCGUUCACGUCGCAGCCCCUGUCAGAUUCUGGUGAAUCCGCGAAUUCUGCUGUAUAUCUC [A5U A18G U60C], the self-cleavage came out at 0.51.

As for UAACUGGGGGCCGCAGCAGAAGCGUUCACGUCGCAGACCCUGUCAGAUUCUGGUGAAUCUGCGAAUUCUGCUGUAUAUCUC [A5U A13G C37A], the self-cleavage came out at 0.42.
